From the supplement of paper PMC7266297
Where a name gives a salt, the structure may show the parent alone. The list shows a part of the results. Single values are uncertain, as repeats are few or missing.

Test system: KB-V1
Assay: growth inhibition relative to DMSO control (SRB); cervical cancer cells: KB-3-1 is the parent and KB-V1 overexpresses MDR1; SRB is the sulforhodamine B stain; higher = more growth inhibition
Details: 1 µM; 72 h
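Also: Read-out is SRB optical density at 490 nm, with the control being wells given 0.5% DMSO vehicle, and compound added one day after cells were plated.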

SMILES | growth inhibition [%]
Cc1cc(C2CCCCC2)n(O)c(=O)c1 [Ciclopirox ethanolamine] | 27.6
CCOC(=O)c1ccc(NC2CCCCC2)c(N)c1 [Ferrostatin-1 (Fer-1)] | < 0
c1cn2cc(-c3ccc4cn[nH]c4c3)nc(Nc3ccc(N4CCOCC4)cc3)c2n1 | < 0
COc1ccccc1OCC(O)CN1CCN(CC(=O)Nc2c(C)cccc2C)CC1 (configuration not stated) [Ranolazine 2HCl] | 40.5
Cc1nnc(C(C)C)n1C1C[C@H]2CC[C@@H](C1)N2CC[C@H](NC(=O)C1CCC(F)(F)CC1)c1ccccc1 (stereo in doubt) [Maraviroc] | 20.1
O=c1ncccn1[C@@H]1O[C@H](CO)[C@@H](O)[C@H]1O [Zebularine] | 16.1
Cc1cc(-c2ccc(CC(=O)Nc3ccc(-c4cccnc4)cc3)cc2)ccn1 | 38.7
CNC[C@H](O)c1ccc(O)c(O)c1 [Epinephrine Bitartrate] | 6.38
CC(C)c1cc(C(=O)N2Cc3ccc(CN4CCN(C)CC4)cc3C2)c(O)cc1O | 70
O=C(Nc1cccc(Cl)c1)c1ccccn1 | 16.9
COc1cc2c(cc1O)CC[C@@H]1[C@@H]2CC[C@]2(C)[C@@H](O)CC[C@@H]12 [2-Methoxyestradiol (2-MeOE2)] | 49.3
CCOc1cc2ncc(C#N)c(Nc3ccc(F)c(Cl)c3)c2cc1NC(=O)/C=C/CN(C)C [Pelitinib (EKB-569)] | 56.9
O=C(Nc1c[nH]nc1-c1nc2ccc(CN3CCOCC3)cc2[nH]1)NC1CC1 | 80.1
CN1CCN(c2nc(C3=C(c4c[nH]c5ccccc45)C(=O)NC3=O)c3ccccc3n2)CC1 [Sotrastaurin] | 28.4
O=C1c2ccc(Nc3ccc(F)cc3F)cc2CCc2ccc(OC[C@H](O)CO)cc21 [Skepinone-L] | < 0
CCC[C@H](NC(=O)[C@@H]1[C@H]2CCC[C@H]2CN1C(=O)[C@@H](NC(=O)[C@@H](NC(=O)c1cnccn1)C1CCCCC1)C(C)(C)C)C(=O)C(=O)NC1CC1 [Telaprevir (VX-950)] | 10.9

SMILES | growth inhibition [%]
CN(C)CCC=C1c2ccccc2CCc2ccccc21 [Amitriptyline HCl] | 17.5
C=CC(=O)Nc1cc2c(Nc3ccc(F)c(Cl)c3)ncnc2cc1OCCCN1CCOCC1 [Canertinib (CI-1033)] | 44.9
CC(C)n1nc(-c2ccc3oc(N)nc3c2)c2c(N)ncnc21 | 85.2
Nc1ccc2ncnc(NCCc3ccc(Oc4ccccc4)cc3)c2c1 | 65.5
COc1ccccc1N1CCN(CCN2C(=O)CC3(CCCC3)CC2=O)CC1 | < 0
C[C@H](NC(=O)CCc1nc2ccccc2c(=O)[nH]1)c1ccccc1 | 14.2
C=CCc1ccc(O)c(-c2ccc(O)c(CC=C)c2)c1 [Honokiol] | 6.54
Clc1ccc2nsnc2c1NC1=NCCN1 [Tizanidine HCl] | 35.2
CNC(=O)c1ccc2cc([C@@]3(O)CCn4cncc43)ccc2c1 [TAK-700 (Orteronel)] | 41.5
CC(C)(C(=O)O)c1ccc(C(O)CCCN2CCC(C(O)(c3ccccc3)c3ccccc3)CC2)cc1 (configuration not stated) [Fexofenadine HCl] | < 0
CC(C=CC(=O)NO)=CC(C)C(=O)c1ccc(N(C)C)cc1 (configuration not stated) [Trichostatin A (TSA)] | 97.7
CO[C@H]1C[C@@H]2CC[C@@H](C)[C@@](O)(O2)C(=O)C(=O)N2CCCC[C@H]2C(=O)O[C@H]([C@H](C)C[C@@H]2CC[C@@H](OP(C)(C)=O)[C@H](OC)C2)CC(=O)[C@H](C)/C=C(\C)[C@@H](O)[C@@H](OC)C(=O)[C@H](C)C[C@H](C)/C=C/C=C/C=C/1C [Ridaforolimus (Deforolimus, MK-8669)] | 42
O=C(CCCCCCC(=O)Nc1ccccc1)NO [Vorinostat (SAHA, MK0683)] | 83
CO[C@H]1C[C@@H]2CC[C@@H](C)[C@@](O)(O2)C(=O)C(=O)N2CCCC[C@H]2C(=O)O[C@H]([C@H](C)C[C@@H]2CC[C@@H](OC(=O)C(C)(CO)CO)[C@H](OC)C2)CC(=O)[C@H](C)/C=C(\C)[C@@H](O)[C@@H](OC)C(=O)[C@H](C)C[C@H](C)/C=C/C=C/C=C/1C | 27.5
CC(C)NCC(O)COc1ccc(CCOCC2CC2)cc1 (configuration not stated) [Betaxolol] | 23
COc1ccc(-c2nc(N3CCOCC3)c3sc(CN(C)c4ncc(C(=O)NO)cn4)cc3n2)cn1 | 94.5
